The BET-seq Pho4 binding data (Le et al. 2018)
The other results are listed elsewhere or left out. These are noisy estimates, calculated here from bound and input reads.

Each sequence was assayed against T1, Pho4 (S. cerevisiae) (UniProt P07270) (assay: relative binding free energy (BET-seq); higher = weaker binding). Settings: reference: library average.
T1 sequence: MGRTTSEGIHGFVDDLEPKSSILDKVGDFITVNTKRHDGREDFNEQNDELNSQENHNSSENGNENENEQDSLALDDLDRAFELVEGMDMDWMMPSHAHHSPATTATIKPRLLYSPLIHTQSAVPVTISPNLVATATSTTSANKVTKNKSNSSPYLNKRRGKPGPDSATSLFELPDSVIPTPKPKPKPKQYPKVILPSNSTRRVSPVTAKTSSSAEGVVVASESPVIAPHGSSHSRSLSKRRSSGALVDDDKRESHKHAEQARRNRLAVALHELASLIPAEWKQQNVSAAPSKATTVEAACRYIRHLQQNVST
For TTGAGCACGTGGTAAG, the “relative binding free energy” value was 0.02 kcal/mol. For TCTTACACGTGTGGGT, the “relative binding free energy” value was 0.12 kcal/mol. With TTTGGCACGTGTGGCA the “relative binding free energy” value was -0.06 kcal/mol. In the case of GTGAGCACGTGTGTGA, the “relative binding free energy” value is reported as -0.05 kcal/mol. For CTTGTCACGTGAATTA, the “relative binding free energy” value was 0.36 kcal/mol. For TAGAGCACGTGATGTG, the “relative binding free energy” value was 0.07 kcal/mol. In the case of GAGTCCACGTGGGGTA, the “relative binding free energy” value is reported as 0.01 kcal/mol. In the case of ATGTGCACGTGGGAGC, the “relative binding free energy” value is reported as -0.22 kcal/mol. For CGTAGCACGTGGGGGC, the “relative binding free energy” value was -0.25 kcal/mol. For GCTGCCACGTGGTTGT, the “relative binding free energy” value was -0.02 kcal/mol. For ATTTTCACGTGGAAAG, the “relative binding free energy” value was 0.27 kcal/mol. In the case of ATTGACACGTGGGGGA, the “relative binding free energy” value is reported as -0.1 kcal/mol. CTTGACACGTGAAGGG was tested, and the “relative binding free energy” value was 0.18 kcal/mol. In the case of GGGCTCACGTGCATGT, the “relative binding free energy” value is reported as 0.26 kcal/mol. In the case of TTTAGCACGTGGTTTA, the “relative binding free energy” value is reported as -0.11 kcal/mol. With TGCTACACGTGGATTG the “relative binding free energy” value was 0.08 kcal/mol. CGGGACACGTGAGTGG was tested, and the “relative binding free energy” value was 0.29 kcal/mol. For TTTCACACGTGTTTGA, the “relative binding free energy” value was 0 kcal/mol. For AAAAACACGTGGGGTT, the “relative binding free energy” value was 0.03 kcal/mol. In the case of ATTTTCACGTGGGGGC, the “relative binding free energy” value is reported as 0.23 kcal/mol. For GATGGCACGTGGTCTA, the “relative binding free energy” value was 0.04 kcal/mol. AGGTTCACGTGATGTC was tested, and the “relative binding free energy” value was 0.45 kcal/mol. With GGAGCCACGTGTGGAT the “relative binding free energy” value was -0.01 kcal/mol. In the case of CACGTCACGTGTTGTT, the “relative binding free energy” value is reported as -0.02 kcal/mol. For TAGGTCACGTGATCGT, the “relative binding free energy” value was 0.14 kcal/mol. With AGGGGCACGTGCGGAA the “relative binding free energy” value was -0.2 kcal/mol. With GTCGTCACGTGCGAGT the “relative binding free energy” value was 0.04 kcal/mol. TAGATCACGTGCGGTG was tested, and the “relative binding free energy” value was 0.1 kcal/mol. With GCGGGCACGTGCGGGA the “relative binding free energy” value was -0.23 kcal/mol. For TTTGACACGTGTTTAG, the “relative binding free energy” value was 0.04 kcal/mol. For GGAGTCACGTGGGGCA, the “relative binding free energy” value was 0.1 kcal/mol. In the case of TCACTCACGTGGGTTG, the “relative binding free energy” value is reported as 0.02 kcal/mol. In the case of AGTAGCACGTGTAGCG, the “relative binding free energy” value is reported as 0.05 kcal/mol. ATTTGCACGTGAGCTT was tested, and the “relative binding free energy” value was 0.19 kcal/mol. GGCAGCACGTGGTTTT was tested, and the “relative binding free energy” value was -0.02 kcal/mol. CAAGGCACGTGAGGCG was tested, and the “relative binding free energy” value was 0.07 kcal/mol. AATTCCACGTGGGAGG was tested, and the “relative binding free energy” value was -0.03 kcal/mol. With ATTCGCACGTGGAGGT the “relative binding free energy” value was 0.02 kcal/mol. ATGCACACGTGGTGCG was tested, and the “relative binding free energy” value was -0.01 kcal/mol. CGGCGCACGTGTGATG was tested, and the “relative binding free energy” value was 0.06 kcal/mol. In the case of AATGTCACGTGAATGA, the “relative binding free energy” value is reported as 0.35 kcal/mol. For TGGTACACGTGTGGTC, the “relative binding free energy” value was 0.08 kcal/mol. With TAATTCACGTGGGAGT the “relative binding free energy” value was 0.35 kcal/mol. GACGGCACGTGTTGTG was tested, and the “relative binding free energy” value was 0.05 kcal/mol. With ACGAGCACGTGGTGAG the “relative binding free energy” value was -0.06 kcal/mol. ATTATCACGTGGCGTC was tested, and the “relative binding free energy” value was 0.23 kcal/mol. In the case of ATAGGCACGTGTTTTT, the “relative binding free energy” value is reported as -0.01 kcal/mol. With TTTTGCACGTGTCGAA the “relative binding free energy” value was -0.13 kcal/mol. In the case of TATGCCACGTGCAGGT, the “relative binding free energy” value is reported as 0.01 kcal/mol. In the case of TAAATCACGTGAAAGG, the “relative binding free energy” value is reported as 0.37 kcal/mol. For GTGCGCACGTGAGTTG, the “relative binding free energy” value was 0.11 kcal/mol. In the case of GTAGACACGTGCGTGT, the “relative binding free energy” value is reported as -0.11 kcal/mol. For AATTGCACGTGGTCTG, the “relative binding free energy” value was -0.1 kcal/mol. AATGGCACGTGGAAGT was tested, and the “relative binding free energy” value was 0.01 kcal/mol. In the case of AGGATCACGTGAAAGG, the “relative binding free energy” value is reported as 0.32 kcal/mol. In the case of ATGTTCACGTGTCCGG, the “relative binding free energy” value is reported as 0.35 kcal/mol. For TGGTACACGTGGCTGG, the “relative binding free energy” value was 0 kcal/mol. With GCGGTCACGTGGTATA the “relative binding free energy” value was 0.03 kcal/mol. In the case of GTTGGCACGTGAAGAT, the “relative binding free energy” value is reported as 0.19 kcal/mol. In the case of AAGGTCACGTGCTTGG, the “relative binding free energy” value is reported as 0.23 kcal/mol. In the case of ATAGGCACGTGATTCG, the “relative binding free energy” value is reported as 0 kcal/mol. In the case of TGATGCACGTGGAGGG, the “relative binding free energy” value is reported as -0.14 kcal/mol. In the case of ATTGACACGTGGCATG, the “relative binding free energy” value is reported as -0.09 kcal/mol. For AGTGGCACGTGACAGG, the “relative binding free energy” value was -0.14 kcal/mol. With GTGTTCACGTGAAATA the “relative binding free energy” value was 0.54 kcal/mol. With CTATGCACGTGGCGTT the “relative binding free energy” value was -0.06 kcal/mol. TATGGCACGTGGGTCG was tested, and the “relative binding free energy” value was -0.2 kcal/mol. With TGGCGCACGTGGGTGA the “relative binding free energy” value was -0.19 kcal/mol. With TGGAGCACGTGTTTAG the “relative binding free energy” value was -0.13 kcal/mol. TCAATCACGTGTGTTG was tested, and the “relative binding free energy” value was 0.19 kcal/mol. For AGGTGCACGTGGACAG, the “relative binding free energy” value was -0.07 kcal/mol. With GGAGGCACGTGGTTTT the “relative binding free energy” value was -0.12 kcal/mol. In the case of GTAGTCACGTGTAGAG, the “relative binding free energy” value is reported as 0.39 kcal/mol. TATAGCACGTGTGACT was tested, and the “relative binding free energy” value was 0.04 kcal/mol. GTATGCACGTGGGTTA was tested, and the “relative binding free energy” value was -0.16 kcal/mol. With GTTGCCACGTGGAGGG the “relative binding free energy” value was 0 kcal/mol. In the case of TATAGCACGTGAGCGG, the “relative binding free energy” value is reported as 0.1 kcal/mol. TGGGGCACGTGGAAGC was tested, and the “relative binding free energy” value was -0.01 kcal/mol. TGGAACACGTGGGACG was tested, and the “relative binding free energy” value was -0.08 kcal/mol. In the case of AGCGTCACGTGCTGTG, the “relative binding free energy” value is reported as -0.03 kcal/mol. TGAATCACGTGGACTT was tested, and the “relative binding free energy” value was 0.3 kcal/mol. For GGTCCCACGTGTGGGG, the “relative binding free energy” value was -0.02 kcal/mol. For ATTAGCACGTGTACAT, the “relative binding free energy” value was 0.11 kcal/mol. For CGTAGCACGTGGGAAG, the “relative binding free energy” value was -0.03 kcal/mol. For TGTAGCACGTGACGGG, the “relative binding free energy” value was 0.14 kcal/mol. For ACAGACACGTGGGGCG, the “relative binding free energy” value was -0.01 kcal/mol. TTCTGCACGTGAAGTA was tested, and the “relative binding free energy” value was 0.19 kcal/mol. With TTCGTCACGTGGGCGG the “relative binding free energy” value was -0.1 kcal/mol. GGCGGCACGTGGATGG was tested, and the “relative binding free energy” value was -0.07 kcal/mol. With AATGACACGTGTGGTT the “relative binding free energy” value was 0.09 kcal/mol. GCGGGCACGTGATTTA was tested, and the “relative binding free energy” value was 0.15 kcal/mol. With GTTTTCACGTGTGAAT the “relative binding free energy” value was 0.43 kcal/mol. For GGTGTCACGTGTGAGC, the “relative binding free energy” value was 0.21 kcal/mol. CGGGGCACGTGATAAG was tested, and the “relative binding free energy” value was -0.02 kcal/mol. For TTTAACACGTGGGCTG, the “relative binding free energy” value was -0.18 kcal/mol. With GTGCTCACGTGTTTGA the “relative binding free energy” value was 0.34 kcal/mol. AGGGTCACGTGAGGAC was tested, and the “relative binding free energy” value was 0.24 kcal/mol. In the case of TCGAGCACGTGTGAGA, the “relative binding free energy” value is reported as 0.14 kcal/mol. For CCTTACACGTGTTGTT, the “relative binding free energy” value was 0.17 kcal/mol. GTGATCACGTGGGGAC was tested, and the “relative binding free energy” value was 0.04 kcal/mol. For TTGGACACGTGATAGT, the “relative binding free energy” value was 0.14 kcal/mol. In the case of TTTTCCACGTGCGTTG, the “relative binding free energy” value is reported as 0.07 kcal/mol. With TGGAACACGTGGGCGT the “relative binding free energy” value was -0.06 kcal/mol. CTGTTCACGTGGAGTT was tested, and the “relative binding free energy” value was 0.33 kcal/mol. With TGGAGCACGTGGCGTG the “relative binding free energy” value was -0.17 kcal/mol. In the case of GTGGTCACGTGTCAGC, the “relative binding free energy” value is reported as 0.18 kcal/mol. In the case of TTATTCACGTGAGGGG, the “relative binding free energy” value is reported as 0.33 kcal/mol. In the case of CTGTTCACGTGTTTTT, the “relative binding free energy” value is reported as 0.15 kcal/mol. In the case of GTGTGCACGTGGCTAG, the “relative binding free energy” value is reported as 0.01 kcal/mol. With CAGGGCACGTGTTTGA the “relative binding free energy” value was -0.08 kcal/mol. With AATTTCACGTGTTCTT the “relative binding free energy” value was 0.18 kcal/mol. For GTGTGCACGTGTCTGG, the “relative binding free energy” value was -0.01 kcal/mol. With AAAGTCACGTGAGGGC the “relative binding free energy” value was 0.18 kcal/mol. For TATATCACGTGTCTGT, the “relative binding free energy” value was 0.06 kcal/mol. For CGTTGCACGTGAGGTG, the “relative binding free energy” value was 0.16 kcal/mol. In the case of GGATGCACGTGGTTGC, the “relative binding free energy” value is reported as 0.07 kcal/mol. With GTTGTCACGTGTGTAT the “relative binding free energy” value was 0.28 kcal/mol. CAGTGCACGTGTTATT was tested, and the “relative binding free energy” value was -0.06 kcal/mol. TTGTACACGTGGCTTG was tested, and the “relative binding free energy” value was 0.08 kcal/mol. TGTGACACGTGTGCTT was tested, and the “relative binding free energy” value was -0.01 kcal/mol. GTTTACACGTGGGATG was tested, and the “relative binding free energy” value was 0.14 kcal/mol. GGCTTCACGTGAAGTG was tested, and the “relative binding free energy” value was 0.23 kcal/mol. For TTTTGCACGTGAATGC, the “relative binding free energy” value was 0.31 kcal/mol. For GATGGCACGTGTTGCG, the “relative binding free energy” value was -0.12 kcal/mol. TTGATCACGTGCTGAT was tested, and the “relative binding free energy” value was 0.03 kcal/mol. In the case of GGCGGCACGTGATGTG, the “relative binding free energy” value is reported as 0.07 kcal/mol. TATGACACGTGTTTTC was tested, and the “relative binding free energy” value was 0.01 kcal/mol. With TTAGACACGTGTGATA the “relative binding free energy” value was 0.21 kcal/mol. With GGGAGCACGTGCATTT the “relative binding free energy” value was 0.03 kcal/mol. For AGGGGCACGTGACATA, the “relative binding free energy” value was 0.02 kcal/mol. ATGGGCACGTGGGGGA was tested, and the “relative binding free energy” value was -0.19 kcal/mol. With GTATTCACGTGTCGTT the “relative binding free energy” value was 0.3 kcal/mol. In the case of GGGATCACGTGCGGTT, the “relative binding free energy” value is reported as 0.17 kcal/mol. GATGACACGTGTTGGG was tested, and the “relative binding free energy” value was 0.28 kcal/mol. For TGCATCACGTGGTATT, the “relative binding free energy” value was 0.08 kcal/mol. GGATACACGTGAGATT was tested, and the “relative binding free energy” value was 0.43 kcal/mol. With GGGGACACGTGGGGAA the “relative binding free energy” value was -0.05 kcal/mol. For GTGTTCACGTGATGTT, the “relative binding free energy” value was 0.36 kcal/mol. In the case of TGTAACACGTGGGCGT, the “relative binding free energy” value is reported as -0.04 kcal/mol. For GTTGACACGTGGTCCT, the “relative binding free energy” value was 0.13 kcal/mol. In the case of GGCGGCACGTGGAATT, the “relative binding free energy” value is reported as 0.25 kcal/mol. TGGGCCACGTGGGTCG was tested, and the “relative binding free energy” value was -0.2 kcal/mol. CTTGTCACGTGATTAA was tested, and the “relative binding free energy” value was 0.23 kcal/mol. For GGAGTCACGTGTTAAG, the “relative binding free energy” value was 0.06 kcal/mol. AAGAGCACGTGGGAGA was tested, and the “relative binding free energy” value was -0.16 kcal/mol. For TTATGCACGTGCGGTG, the “relative binding free energy” value was -0.16 kcal/mol.
